Experimental data published in the supplement of paper PMC11876631.
± gives the standard deviation of the averaged measurements. Laboratory Escherichia coli strains with one amino-acid change in an essential protein, pooled on minimal glucose agar with carbenicillin or gentamicin at twice the control MIC (plus kanamycin and chloramphenicol for the plasmids), 48 h. Fold change of barcode share against drug-free plates; higher = less susceptible. Active = above 20 in both replicates (the paper's putatively resistant). '<' = one read or none on drug, '>' = one read or none on a drug-free plate. Shares are relative, so most strains fall below 1 when a few take over. Listed are strains with at least 15 reads on both drug-free plates, and hits; most hits rest on fewer reference reads. Replicate rank correlation about 0.5. Edits are read from barcodes.

B1: gpsA; numbered along this chain (parent)
chain: MNQRNASMTVIGAGSYGTALAITLARNGHEVVLWGHDPEHIATLERDRCNAAFLPDVPFPDTLHLESDLATALAASRNILVVVPSHVFGEVLRQIKPLMRPDARLVWATKGLEAETGRLLQDVAREALGDQIPLAVISGPTFAKELAAGLPTAISLASTDQTFADDLQQLLHCGKSFRVYSNPDFIGVQLGGAVKNVIAIGAGMSDGIGFGANARTALITRGLAEMSRLGAALGADPATFMGMAGLGDLVLTCTDNQSRNRRFGMMLGQGMDVQSAQEKIGQVVEGYRNTKEVRELAHRFGVEMPITEEIYQVLYCGKNAREAALTLLGRARKDERSSH
B2: glmU; numbered along this chain (parent)
chain: MLNNAMSVVILAAGKGTRMYSDLPKVLHTLAGKAMVQHVIDAANELGAAHVHLVYGHGGDLLKQALKDDNLNWVLQAEQLGTGHAMQQAAPFFADDEDILMLYGDVPLISVETLQRLRDAKPQGGIGLLTVKLDDPTGYGRITRENGKVTGIVEHKDATDEQRQIQEINTGILIANGADMKRWLAKLTNNNAQGEYYITDIIALAYQEGREIVAVHPQRLSEVEGVNNRLQLSRLERVYQSEQAEKLLLAGVMLRDPARFDLRGTLTHGRDVEIDTNVIIEGNVTLGHRVKIGTGCVIKNSVIGDDCEISPYTVVEDANLAAACTIGPFARLRPGAELLEGAHVGNFVEMKKARLGKGSKAGHLTYLGDAEIGDNVNIGAGTITCNYDGANKFKTIIGDDVFVGSDTQLVAPVTVGKGATIAAGTTVTRNVGENALAISRVPQTQKEGWRRPVKKK
B3: mrdB; numbered along this chain (parent)
chain: MTDNPNKKTFWDKVHLDPTMLLILLALLVYSALVIWSASGQDIGMMERKIGQIAMGLVIMVVMAQIPPRVYEGWAPYLYIICIILLVAVDAFGAISKGAQRWLDLGIVRFQPSEIAKIAVPLMVARFINRDVCPPSLKNTGIALVLIFMPTLLVAAQPDLGTSILVALSGLFVLFLSGLSWRLIGVAVVLVAAFIPILWFFLMHDYQRQRVMMLLDPESDPLGAGYHIIQSKIAIGSGGLRGKGWLHGTQSQLEFLPERHTDFIFAVLAEELGLVGILILLALYILLIMRGLWIAARAQTTFGRVMAGGLMLILFVYVFVNIGMVSGILPVVGVPLPLVSYGGSALIVLMAGFGIVMSIHTHRKMLSKSV

Variants of: B1
Experiment: barcode share on antibiotic plates over drug-free plates; higher = less susceptible
Conditions: with Escherichia coli (laboratory strain); antibiotic: carbenicillin; 2× MIC (3.1 µg/mL)
Method: (§1)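 A pool of E. coli strains, each edited to carry one amino-acid change in an essential protein, was grown for 48 h on minimal glucose agar with or without antibiotic; strain barcodes were sequenced; mean of two replicates.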

Variant | fold change of barcode share
L33D | 0.245 ± 0.019
I137W | 0.46 ± 0.15
I137P | 0.582 ± 0.01
I137A | 0.404 ± 0.18
I137Q | 0.31 ± 0.046
I310A | 0.31 ± 0.16
I310Q | 0.108 ± 0.0058
I310W | > 69.1 [active]

Same assay, conditions: with Escherichia coli (laboratory strain); antibiotic: gentamicin; 2× MIC (MIC 0.45 µg/mL)

Variant | fold change of barcode share
L33D | < 0.00387
I137W | 0.0541 ± 0.064
I137P | 0.0256 ± 0.012
I137A | 0.00522 ± 0.0048
I137Q | 0.00447 ± 0.0045
I310Q | < 0.0143

Variants of: B2
Experiment: as above
Conditions: with Escherichia coli (laboratory strain); antibiotic: carbenicillin; 2× MIC (3.1 µg/mL)
Method: as §1

Variant | fold change of barcode share
L128D | 0.279 ± 0.0062
L128Q | 0.341 ± 0.029
L128A | 0.385 ± 0.084
L128W | 0.393 ± 0.092
L128P | 1.1 ± 0.59
L53P | 0.45 ± 0.083
L53A | 0.498 ± 0.12
W183P | 0.317 ± 0.18
W183Q | 0.38 ± 0.16
W183A | 1.51 ± 1.1
W183D | 0.329 ± 0.18
L100A | 0.435 ± 0.32
L100W | 1.11 ± 0.8
L100P | 2.98 ± 1.7
L100Q | 0.292 ± 0.044
L100D | 0.871 ± 1
L129D | 0.617 ± 0.31
L129A | 0.413 ± 0.018
L129W | 0.363 ± 0.063
L129Q | 0.403 ± 0.041
L173Q | 0.23 ± 0.086
I174D | 0.137 ± 0.037
I174Q | 0.28 ± 0.016

Same assay, conditions: with Escherichia coli (laboratory strain); antibiotic: gentamicin; 2× MIC (MIC 0.45 µg/mL)

Variant | fold change of barcode share
L128D | 0.00555 ± 0.00024
L128Q | 0.007465 ± 1.1e-05
L128A | 0.00443 ± 0.0012
L128W | 0.00651 ± 0.00064
L53P | 0.0536 ± 0.073
L53A | 0.00411 ± 0.00079
W183Q | < 0.0108
W183A | < 0.00856
W183D | < 0.00895
L100A | < 0.00361
L100W | 0.0339 ± 0.033
L100P | 0.0122 ± 0.0086
L100Q | < 0.00259
L100D | < 0.0159
L129A | 0.00408 ± 0.0042
L129W | 0.0238 ± 0.0097
L129Q | 0.0143 ± 0.018
L173W | < 0.0163
L173Q | < 0.0171
I174D | < 0.0132
I174W | < 0.0141
I174Q | 0.6 ± 0.34

Variants of: B3
Experiment: as above
Conditions: with Escherichia coli (laboratory strain); antibiotic: carbenicillin; 2× MIC (3.1 µg/mL)
Method: as §1

Variant | fold change of barcode share
M212W | 0.169 ± 0.035
M212A | 0.302 ± 0.085
M212Q | 0.244 ± 0.035
M212D | 0.365 ± 0.2
M357A | 0.272 ± 0.12
M357W | 0.0834 ± 0.07
I35D | 0.212 ± 0.035
I35Q | 0.1606 ± 0.0009
I35P | 0.138 ± 0.029
I35A | 0.187 ± 0.036
V34P | 0.467 ± 0.093
V34A | 0.223 ± 0.15
V34W | 0.431 ± 0.062
V34D | 0.397 ± 0.25
V34Q | 0.283 ± 0.13
I294D | 0.337 ± 0.005
L21P | 0.188 ± 0.034
L21A | 0.341 ± 0.011
L21D | 0.256 ± 0.18
L21Q | 0.175 ± 0.11
L21W | 0.217 ± 0.0027
L214Q | 0.295 ± 0.25

Same assay, conditions: with Escherichia coli (laboratory strain); antibiotic: gentamicin; 2× MIC (MIC 0.45 µg/mL)

Variant | fold change of barcode share
M212W | < 0.00744
M212A | < 0.0148
M212Q | 0.0117 ± 0.00045
M212D | 0.0197 ± 0.011
M357A | < 0.0129
I35D | < 0.00793
I35Q | 0.0746 ± 0.093
I35P | < 0.0104
I35W | < 0.0208
I35A | < 0.00576
M213A | < 0.0187
F175Q | < 0.0185
V34P | < 0.00288
V34A | < 0.00755
V34W | < 0.00429
V34D | 0.0482 ± 0.056
V34Q | < 0.00494
I294D | 0.0208 ± 0.014
L21P | < 0.00666
L21A | 0.00922 ± 0.0038
L21D | < 0.00632
L21Q | < 0.0115
L21W | < 0.00438
L214Q | < 0.0227
L214A | < 0.0152
